Measured values from PubChem BioAssay AID493035 (The Scripps Research Institute Molecular Screening Center, 2011).
Several values for one entry are separate records, joined by “and”; a condition that tells them apart may be missing. Equal entries are not always repeated. The campaign covered roughly 2,000 compounds. About 45 (2%) were called active.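 Rule for the calls: active = inhibition above the mean of all tested compounds plus 3 SD (cut at about 49% in these data); inactive = the rest.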 This is one part of the list. Where a SMILES comes first, the peptide text is derived from it. The star is where a group is joined. Boc = CC(C)(C)OC(=O)*; OBn = c1ccc(CO*)cc1

These molecules were tested against Perilipin-5 (Homo sapiens) + 1-acylglycerol-3-phosphate O-acyltransferase ABHD5 (Homo sapiens) (UniProt Q00G26+Q8WTS1) (assay: blockers of ABHD5 binding to perilipin-5 – cell lysate, split luciferase complementation, luminescence, NIH validation set, pilot screen (AID 493035;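 for inhibition: 0% = DMSO only wells while the 100% control is not stated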)). Details: split G. princeps luciferase complementation, lysates, 4 h; at 7.9 µM, active compounds read high.
UniProt Q00G26, sequence (Q00G26 whole entry, looked up): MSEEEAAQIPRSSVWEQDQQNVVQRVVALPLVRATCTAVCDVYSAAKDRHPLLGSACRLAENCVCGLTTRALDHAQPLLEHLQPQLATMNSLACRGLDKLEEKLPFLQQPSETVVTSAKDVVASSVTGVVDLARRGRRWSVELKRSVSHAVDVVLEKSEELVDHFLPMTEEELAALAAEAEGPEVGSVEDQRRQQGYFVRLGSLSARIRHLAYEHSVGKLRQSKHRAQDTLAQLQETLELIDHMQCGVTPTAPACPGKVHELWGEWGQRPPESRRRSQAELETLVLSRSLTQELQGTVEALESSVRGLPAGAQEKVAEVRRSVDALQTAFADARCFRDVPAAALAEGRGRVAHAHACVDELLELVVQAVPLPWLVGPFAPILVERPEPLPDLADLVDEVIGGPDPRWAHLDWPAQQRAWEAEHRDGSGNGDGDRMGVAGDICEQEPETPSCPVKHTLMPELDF
UniProt Q00G26, sequence (Q8WTS1 whole entry, looked up): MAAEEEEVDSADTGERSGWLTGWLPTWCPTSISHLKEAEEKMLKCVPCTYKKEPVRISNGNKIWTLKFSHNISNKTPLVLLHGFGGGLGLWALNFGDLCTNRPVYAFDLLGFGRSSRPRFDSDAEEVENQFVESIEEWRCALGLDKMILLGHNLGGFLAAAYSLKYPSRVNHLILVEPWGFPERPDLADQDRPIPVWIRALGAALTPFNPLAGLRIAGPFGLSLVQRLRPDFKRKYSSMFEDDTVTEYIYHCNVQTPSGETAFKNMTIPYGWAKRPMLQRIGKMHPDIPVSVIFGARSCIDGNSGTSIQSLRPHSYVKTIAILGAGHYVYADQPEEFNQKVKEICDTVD

| Structure (SMILES) | inhibition |
| --- | --- |
| CC1(C)OC2OC(C(=O)N/N=C/c3ccccc3F)C3OC(C)(C)OC3C2O1 (stereo unspecified) | inactive: -4.6% |
| O=C(c1ccc([N+](=O)[O-])cc1)N1CCSC1c1ccccc1Cl (stereo unspecified) | inactive: -4.89% |
| O=C(O)Cc1ccc(O)c(F)c1 | inactive: -5.48% |
| CC(C)CC(=O)NC(NC(=O)CC(C)C)c1cccc([N+](=O)[O-])c1 | inactive: -8.94% |
| O=C1CC(c2ccc(OCCCCCOc3ccc(C4CC(=O)NC4=O)cc3)cc2)C(=O)N1 (stereo unspecified) | inactive: 8.4% |
| COC(=O)C1=C(C)NC(C)=C(C(=O)OC)C1c1ccccc1[N+](=O)[O-] | active |
| N/C(=N/OS(=O)(=O)c1ccc([N+](=O)[O-])cc1)c1ccncc1 | inactive: -6.02% |
| COc1cc2c(cc1O)CC[C@@H]1[C@@H]2CC[C@]2(C)[C@@H](O)CC[C@@H]12 | inactive: -4.16% |
| NS(=O)(=O)c1ccc(CCNC(=O)C2CCCN2C(=O)OCc2ccccc2)cc1 (stereo unspecified) | inactive: -14% |
| C=CCNc1nc2c(c(=O)n(C)c(=O)n2C)n1CC(=C)C | inactive: 12.9% |
| Clc1ccccc1CN1CCc2sccc2C1 | inactive: -3.14% |
| O=C(/C=C/c1ccccc1)NC(=O)c1ccccc1O | inactive: 12.7% |
| CN(C)CCCN1c2ccccc2CCc2ccc(Cl)cc21 | inactive: -21.8% |
| COc1ccc2nc(C)cc(Nc3ccccc3O)c2c1 | inactive: -5.57% |
| CCOCC(=O)Nc1ccccc1C(=O)N1CCOCC1 | inactive: 7.04% |
| O=C(O)/C=C/c1cccc(OCc2ccccc2)c1 | inactive: -15.3% |
| O=C(c1ccc(F)cc1)[C@@H]1[C@@H](C(=O)c2ccccc2)[C@@]2(C(=O)Nc3ccccc32)[C@H]2c3ccccc3C=CN12 | inactive: 15.4% |
| C#C[C@]1(O)CC[C@H]2[C@@H]3CCc4cc(OC)ccc4[C@H]3CC[C@@]21C | inactive: -8.39% |
| CC1=C(C)C(=O)C(CCCCC#CCCCC#CCO)=C(C)C1=O | inactive: 14.6% |
| c1coc(-c2nnc3n2C2(CCCC2)Cc2ccccc2-3)c1 | inactive: -2.54% |
| O=C(/C=C/c1ccco1)Nc1ccccc1C(=O)O | inactive: 2.66% |
| CCCCCCC(=O)N(O)C1CC(=O)N(Cc2ccccc2)C1=O (stereo unspecified) | inactive: 8.08% |
| O=C(CN1C(=O)c2ccccc2S1(=O)=O)Nc1ccccc1 | inactive: -7.21% |
| COc1cc2c(cc1OC)-c1nnc(C)n1C(C)(C)C2 | inactive: -1.09% |

| Structure (SMILES) | inhibition |
| --- | --- |
| COc1cc(OC)c2c(C)c(Cl)c(=O)oc2c1 | inactive: -6.84% |
| COc1ccc(NC(=O)CC(c2ccccc2)c2ccco2)cc1 (stereo unspecified) | inactive: 19% |
| CC[C@H]1CN2CCc3cc(OC)c(OC)cc3[C@@H]2C[C@@H]1C[C@H]1NCCc2cc(OC)c(OC)cc21 | inactive: -1.41% |
| CCOc1ccc2oc(-c3ccccc3)c(C(=O)O)c2c1 | inactive: -9.54% |
| CCN(CC)CCNC(=O)c1ccc(NC(C)=O)cc1 | inactive: 2.59% and inactive: 3.56% |
| COc1ccc(CCNC(=O)C(=O)Nc2ccc3c(c2)OCO3)cc1OC | inactive: -7.87% |
| CNC[C@H](O)c1cccc(O)c1 | inactive: 7.25% |
| COc1ccc2[nH]c(CN3CCN(CC(C)C)C(CCO)C3)c(C)c2c1 (stereo unspecified) | inactive: -11.5% |
| Cn1c2ccccc2c2cc(/C=C(\NC(=O)c3ccccc3)C(=O)O)ccc21 | inactive: -7.5% |
| O=C(O)CCn1c(=S)n(CCC(=O)O)c2ccccc21 | inactive: 8.91% |
| CC1(CC(=O)Nc2ccccc2)NC(=S)N(c2ccccc2)N1 (stereo unspecified) | inactive: 1.46% |
| CCOC(=O)Nc1ccc2c(c1)N(C(=O)CCN1CCOCC1)c1ccccc1S2 | inactive: 0.93% |
| CCOC(=O)c1cnc2ccccc2c1NCCO | inactive: -3.57% |
| CN=C(NC#N)NCCSCc1nc[nH]c1C | inactive: -10.8% |
| CCC(C)NCCOCCOc1ccc(Cl)c2ccccc12 (stereo unspecified) | inactive: -12.6% |
| COc1ccc(-c2csc(-c3cccnc3)n2)cc1C | inactive: -0.19% |
| COc1ccc(C2(CCN=Cc3ccc(N(C)C)cc3)CCOC(C)(C)C2)cc1 (stereo unspecified) | inactive: -10.9% |
| COc1ccc(Br)cc1C(=O)Nc1ccc(C(=O)O)cc1 | inactive: 0.9% |
| COc1cc([C@@H]2c3cc4c(cc3[C@H](O)[C@H]3COC(=O)[C@H]23)OCO4)cc(OC)c1OC | inactive: -2.88% |
| CC(C)CC(NC(=O)C(NC(=O)OC(C)(C)C)C(C)C)C(=O)NC(CCC(=O)OCc1ccccc1)C(N)=O (stereo not drawn) (Boc-Val-Leu-Glu(OBn)-NH2; configuration not given here) | inactive: -6.05% |
| COc1ccc(C(=O)Nc2ccccc2C(=O)NCCCn2ccnc2)cc1 | inactive: -6.29% |
| O=C(CC1SC(=O)NC1=O)Nc1ccc(Cl)cc1 (stereo unspecified) | inactive: -6.54% |
| COC(=O)c1ccccc1NC(=O)NCc1ccccc1 | inactive: -4.99% |
| O=C(NCCc1ccccc1)C1CCN(C2CCN(Cc3ccco3)CC2)CC1 | inactive: 4.49% |

| Structure (SMILES) | inhibition |
| --- | --- |
| c1ccc2c(c1)CCCC2C1=NCCN1 (stereo unspecified) | inactive: -0.4% |
| CCCCN1C[C@H](O)[C@@H](O)[C@H](O)[C@H]1CO | inactive: -11.3% |
| C[C@]12CC[C@@H]3c4ccc(O)cc4[C@@H](O)C[C@H]3[C@@H]1CC[C@@H]2O | inactive: 3.05% |
| CCC(C)NCCOc1ccc(C(C)(C)c2ccccc2)cc1 (stereo unspecified) | inactive: -20.1% |
| Nc1ccc(S(=O)(=O)NC(=O)c2ccccc2)cc1 | inactive: -1.95% |
| C[N+](C)(C)CCOP(=O)(O)OP(=O)([O-])OC[C@H]1O[C@@H](n2ccc(N)nc2=O)[C@H](O)[C@@H]1O | inactive: 6.72% |
| Clc1ccc(CCNc2ncnc3nc[nH]c23)cc1 | inactive: -0.06% |
| CCOC(=O)c1cc2cc3ccccc3cc2[nH]1 | inactive: 3.97% |
| CC(C)(CO)CNC(=O)CC1C(=O)NCCN1CC(c1ccccc1)c1ccccc1 (stereo unspecified) | inactive: 2.61% |
| COc1ccc(CNC(=O)C2CCN(C(=O)[C@@H](CC(C)C)NC(=O)OC(C)(C)C)CC2)cc1 | inactive: -5.28% |
| COc1ccc(CN(CCC(c2ccc(F)cc2)C2CCOC(C)(C)C2)C(=O)c2ccco2)cc1 (stereo unspecified) | inactive: 33.5% |
| CCOc1ccc(C(=O)C(C)=O)c(OCC)c1 | inactive: 3.44% |
| COc1ccc(CCCC(=O)O)c(C)c1 | inactive: -3.24% |
| COCC1CCCN(Cc2cn[nH]c2-c2cc3ccccc3o2)C1 (stereo unspecified) | inactive: -4.29% |
| CCOc1cc(C=O)ccc1OCCSc1ccc(C)cc1 | inactive: -8.71% |
| O=C1OC(c2ccc(O)cc2)(c2ccc(O)cc2)c2ccccc21 | inactive: 6.4% |
| C/C=C/Cn1c(SC)nc2c1c(=O)[nH]c(=O)n2C | inactive: -3.19% |
| CC(C)C(=O)Nc1cccnc1 | inactive: 0.81% |
| COc1ccc(C=NCC2COc3ccccc3O2)cc1OC (stereo unspecified) | inactive: 11.6% |
| CN(C)c1ccc(O)c2c1CC1CC3[C@@H](N(C)C)C(=O)C(C(N)=O)=C(O)[C@]3(O)C(=O)C1=C2O (stereo partly specified) | inactive: 3.04% |
| O=C(O)C1Cc2ccccc2CN1S(=O)(=O)c1ccccc1 (stereo unspecified) | inactive: 3.15% |
| CC(=O)OCC(=O)[C@H]1CC[C@H]2[C@@H]3CC=C4C[C@@H](O)CC[C@]4(C)[C@H]3CC[C@]12C | inactive: -6.44% |
| O=C(NC1CCCCC1)N1CCc2[nH]c3ccccc3c2C1 | inactive: 3.3% |
| CCOC(=O)C(=O)N1CCN(c2ccccc2OC)CC1 | inactive: -5.55% |

| Structure (SMILES) | inhibition |
| --- | --- |
| CC(C)(Oc1ccc(CCNC(=O)c2ccc(Cl)cc2)cc1)C(=O)O | inactive: -2.51% |
| OCCN1CCN(CCCN2c3ccccc3Sc3ccc(C(F)(F)F)cc32)CC1 | inactive: 0.19% |
| c1ccc(CC2=NCCN2)cc1 | inactive: 0.09% |
| O=C(Nc1ccc(C(=O)NC2CCCCC2)cc1)c1cccnc1 | inactive: -10.4% |
| CCc1cc(=O)oc2cc(OCC=C(C)C)ccc12 | inactive: -4.44% |
| Clc1ccc2c(c1)C(N1CCNCC1)=Nc1ccccc1O2 | inactive: -6.4% |
| O=C1c2ccccc2C(=O)C1c1ccccc1 | inactive: -2.73% |
| O=Cc1ccc(OC(=O)c2cccnc2)cc1 | inactive: 2.3% |
| Cc1ccc(N(CC2=NCCN2)c2cccc(O)c2)cc1 | inactive: -7.62% and inactive: -6.05% and inactive: -5.69% |
| COc1ccccc1C1(CC(=O)N2CCCCC2)CCOC(C(C)C)C1 (stereo unspecified) | inactive: -11.5% |
| O=C(CN1CCN(Cc2ccccc2)CC1)N1CCCc2c1c(=O)oc1ccc(O)cc21 | inactive: 3.84% |
| N#Cc1cc2c([nH]c1=O)CCCC2 | inactive: -4.72% |
| COc1ccc(N2CCN(C(=S)NCc3ccccc3)CC2)cc1 | inactive: 10.2% |
| Cn1c(=O)[nH]c(=O)c2c1ncn2CCN1CCOCC1 | inactive: -6.17% |
| O=C(NCCO)c1ccc(Cl)c(Cl)c1 | inactive: -9.12% |
| CC1CCN(C(=O)Oc2ccccc2)CC1 | inactive: 2.98% |
| COCCCC/C(=N\OCCN)c1ccc(C(F)(F)F)cc1 | inactive: -0.71% |
| C[C@]12CCC(=O)C=C1CC[C@@H]1[C@@H]2C(=O)C[C@@]2(C)[C@H]1CC[C@]2(O)C(=O)CO | inactive: -5.02% |
| O=C(O)CCSc1nc2ccccc2s1 | inactive: 6.88% |
| CC(C)(C)C(=O)Nc1cccc(OC(F)(F)C(F)Cl)c1 (stereo unspecified) | inactive: -10.7% |
| CSCC[C@H](NC(=O)Nc1ccc(C)cc1C)C(=O)O | inactive: -1.66% |
| O=C(CN1C(=O)/C(=C/c2cccc(Br)c2)SC1=S)Nc1cccnc1 | active: 52% |
| CC(C)=CC/C=C1\CCC(C(=O)O)C(C(=O)O)C1 (stereo unspecified) | inactive: 1.14% |
| NC(=O)c1ccccc1O | inactive: 3.65% |
